Synthetic gut communities (20 or 21 species) grown anaerobically with drug for 24 h at the dose given, then challenged with the named pathogen. Pathogen growth (luminescence, or colony counts for V. cholerae) or community OD578 as fold of untreated communities, mean of three; above 1 = more growth. No active / inactive call.
Tests used:
[1] = test system: Com20 synthetic gut community; assay: Com20 community biomass OD578 after 24 h drug treatment relative to untreated (fraction of untreated control); higher = more community growth
[2] = test system: Salmonella enterica Typhimurium in Com20; assay: S. Typhimurium luminescence in drug-pretreated Com20 relative to untreated Com20 (fold of untreated control); higher = more pathogen expansion
[3] = test system: Escherichia coli CFT073 (community: Com20); assay: pathogen growth (luminescence or CFU) in drug-pretreated community relative to untreated community (fold of untreated control); higher = more pathogen expansion
[4] = test system: Klebsiella pneumoniae MKP103 (community: Com20); assay: as above
[5] = test system: Salmonella enterica Typhimurium (community: Com21 (Com20 + E. coli ED1a)); assay: as above
[6] = test system: Shigella flexneri 24570 (community: Com20); assay: as above
[7] = test system: Vibrio cholerae A1552 (community: Com20); assay: as above
[8] = test system: Yersinia enterocolitica WA-314 (community: Com20); assay: as above
[9] = test system: Yersinia pseudotuberculosis YPIII (community: Com20); assay: as above

Clc1ccccc1C(c1ccccc1)(c1ccccc1)n1ccnc1 [Clotrimazole]
Details | Com20 community biomass OD578, [1] | S. Typhimurium luminescence, [2] | pathogen growth, [3] | pathogen growth, [4] | pathogen growth, [5] | pathogen growth, [6] | pathogen growth, [7] | pathogen growth, [8] | pathogen growth, [9]
drug pretreatment concentration 2.5 µM | 1.02 | 1.1 | – | – | 1.12 | – | – | – | –
drug pretreatment concentration 5 µM | 1.02 | 0.896 | – | – | 1.38 | – | – | – | –
drug pretreatment concentration 10 µM | 1.01 | 0.654 | 1.11 | 1.2 | 1.2 | 1.15 | 0.548 | 1.31 | 1.46
drug pretreatment concentration 20 µM | 0.983 | 0.882 | 1.69 | 1.54 | 1.01 | 1.32 | 0.829 | 1.02 | 1.13
drug pretreatment concentration 40 µM | 0.966 | 1.14 | 1.93 | 1.76 | 1.58 | 1.97 | 0.851 | 0.709 | 0.842
drug pretreatment concentration 80 µM | – | – | 7.3 | 5.24 | – | 13.3 | 2.55 | 4.39 | 4.86
drug pretreatment concentration 100 µM | – | – | 19.7 | 14.8 | – | 41.5 | 7.85 | 25.1 | 26.6

O=c1[nH]c(=O)n([C@H]2C[C@H](O)[C@@H](CO)O2)cc1F [Floxuridine]
Details | Com20 community biomass OD578, [1] | S. Typhimurium luminescence, [2] | pathogen growth, [3] | pathogen growth, [4] | pathogen growth, [5] | pathogen growth, [6] | pathogen growth, [7] | pathogen growth, [8] | pathogen growth, [9]
drug pretreatment concentration 10 µM | 0.95 | 10.1 | 6.55 | 6.83 | 2.95 | 13.7 | 5.63 | 3.81 | 4.24
drug pretreatment concentration 20 µM | 0.885 | 9.29 | 10.8 | 13.1 | 3.22 | 29.6 | 6.2 | 6.75 | 6.7
drug pretreatment concentration 40 µM | 0.893 | 5.45 | 12.8 | 14.4 | 3.7 | 33.2 | 9.48 | 11.9 | 12.4
drug pretreatment concentration 80 µM | 0.853 | 3.9 | 8.61 | 7.25 | 3.89 | 15.9 | 6.28 | 12.4 | 14.6
drug pretreatment concentration 100 µM | – | – | 9.48 | 8.57 | – | 14.7 | 8.75 | 15.4 | 16.5
drug pretreatment concentration 160 µM | 0.883 | 1.71 | – | – | 4.6 | – | – | – | –
